# Out of some 310,000 compounds screened, about 14,000 (4.5%) showed an effect of 50% or more. The effect is printed as a negative number. The list shows a part of the results.
# Biological target: human ether-à-go-go-related gene (hERG) potassium channel (human, UniProt Q12809)
# Test: primary screen, population patch clamp on CHO cells stably expressing hERG
# 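Further: peak tail current of the secondary pulse compared with the same well before compound.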
# human ether-à-go-go-related gene (hERG) potassium channel, sequence (Q12809 whole entry, looked up): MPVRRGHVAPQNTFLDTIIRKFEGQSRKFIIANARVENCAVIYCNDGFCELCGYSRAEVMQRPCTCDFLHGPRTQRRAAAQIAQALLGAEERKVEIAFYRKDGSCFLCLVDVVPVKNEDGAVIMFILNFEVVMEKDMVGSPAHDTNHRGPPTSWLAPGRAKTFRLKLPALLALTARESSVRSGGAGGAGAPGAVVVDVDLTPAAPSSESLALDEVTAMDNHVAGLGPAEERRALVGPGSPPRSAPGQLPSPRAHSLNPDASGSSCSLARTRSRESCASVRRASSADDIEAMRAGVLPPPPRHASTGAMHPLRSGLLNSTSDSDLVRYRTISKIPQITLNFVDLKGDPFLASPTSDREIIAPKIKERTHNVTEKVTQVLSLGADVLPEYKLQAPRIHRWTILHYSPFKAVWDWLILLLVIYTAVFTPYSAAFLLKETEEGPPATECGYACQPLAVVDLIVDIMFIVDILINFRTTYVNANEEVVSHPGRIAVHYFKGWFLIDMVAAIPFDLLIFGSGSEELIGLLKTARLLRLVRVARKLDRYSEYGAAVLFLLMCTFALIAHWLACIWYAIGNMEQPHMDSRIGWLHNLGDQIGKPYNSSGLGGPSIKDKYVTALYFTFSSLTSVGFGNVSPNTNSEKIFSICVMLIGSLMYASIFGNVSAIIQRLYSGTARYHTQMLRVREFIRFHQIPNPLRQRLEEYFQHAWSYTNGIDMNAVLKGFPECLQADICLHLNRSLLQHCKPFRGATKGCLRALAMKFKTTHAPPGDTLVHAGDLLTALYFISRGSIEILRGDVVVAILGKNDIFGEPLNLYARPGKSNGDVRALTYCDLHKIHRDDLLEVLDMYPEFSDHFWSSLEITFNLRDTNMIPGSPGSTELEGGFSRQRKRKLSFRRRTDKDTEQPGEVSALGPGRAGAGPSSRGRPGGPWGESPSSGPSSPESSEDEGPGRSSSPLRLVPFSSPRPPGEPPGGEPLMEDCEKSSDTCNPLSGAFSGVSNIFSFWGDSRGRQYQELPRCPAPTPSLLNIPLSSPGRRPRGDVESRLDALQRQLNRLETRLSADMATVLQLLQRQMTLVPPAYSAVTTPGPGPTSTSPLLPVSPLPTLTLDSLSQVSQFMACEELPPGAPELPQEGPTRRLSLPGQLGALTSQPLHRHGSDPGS
row,SMILES,"hERG current change (%, negative = inhibition) at 10uM"
1,CCN(CC)c1ccc(-c2sc(Nc3ccccc3)n[n+]2-c2ccc(F)cc2)cc1.[Cl-],-71.6%
2,CCOCCCN1CC(C(=O)NCc2ccc3c(c2)OCO3)CC1=O (stereo not drawn),2.71%
3,Cc1cccc(NC(=O)c2nc[nH]c2C(=O)N[C@@H](CC(C)C)C(=O)OC(C)(C)C)c1,18.5%
4,CC(C)n1cnnc1SCC(=O)Nc1ccc(Br)cc1F,14.6%
5,O=C(CCS(=O)(=O)c1ccccc1)Nc1ccccn1,17.1%
6,Cc1[nH]c2ccccc2c1SCC(=O)N1CCCCCC1,-10%
7,COc1cccc(/C=C/C(=O)OCC(=O)NCCNC(=O)COC(=O)/C=C/c2cccc(OC)c2)c1,-1.52%
8,Cc1cc(NC(=O)CSc2nc3c(c(=O)n2-c2ccc(Cl)cc2)SCC3)no1,-8.08%
9,O=c1[nH]c(N/N=C/c2ccccc2)nc2ccccc12,-14.9%
10,CN(c1ccccc1)S(=O)(=O)c1cccc(NC(=O)COc2cccc([N+](=O)[O-])c2)c1,-45.4%
11,CCOC(=O)c1c(C)n(C)c2ccc(OC)c(NC(=O)CN3CCC(C(=O)OCC)CC3)c12,0.953%
12,CCn1c(C(C)NC(C)=O)nc2ccccc21 (stereo not drawn),-0.288%
13,COC(=O)C1=C(C)N(Cc2ccccc2)C(=NCCc2cccnc2)N[C@H]1c1ccccc1,-63%
14,C=CCc1ccc(OCCOc2cccc3ccc(C)nc23)c(OC)c1.O=C(O)C(=O)O,-6.6%
15,O=C(OCc1ccc(F)cc1)c1ccc2ccccc2n1,-8.34%
16,O=C(O)CCC(=O)Nc1ccc(F)cc1,12.7%
17,CCn1c(SCC(=O)Nc2nc3ccc(OC)cc3s2)nnc1-c1ccoc1C,-32.3%
18,COc1cc(/C=N/NC(=O)c2c(C)nnn2-c2nonc2N)ccc1O,-39.3%
19,Cc1ccc(NC(=O)COC(=O)c2ccc([N+](=O)[O-])o2)cc1S(=O)(=O)N1CCCCCC1,-33.7%
20,CNC(=O)CNC(=O)Nc1ccc(C)cc1,17.9%
21,COc1ccccc1C1CCN(c2cc(O)ccc2[N+](=O)[O-])CC1,4.65%
22,O=C(Nc1ccc(O)cc1)C1CCCO1 (stereo not drawn),16.4%

row,SMILES,"hERG current change (%, negative = inhibition) at 10uM"
1,CCNC(=S)NNC(=O)c1cc(C)nc2ccccc12,-14.1%
2,CC(C)CCNC(=O)C1CCN(S(=O)(=O)c2ccc3nc4c(c(C(=O)O)c3c2)CCCCC4)CC1,31.8%
3,O=C(CSc1cccc(C(F)(F)F)c1)NC(=O)NCc1ccco1,-3.66%
4,O=C(COC(=O)c1cccc(O)c1)NCc1ccc2c(c1)OCO2,-5.22%
5,O=C(CN(Cc1cccs1)C(=O)CNS(=O)(=O)c1ccc(F)cc1)NCc1ccco1,-26.4%
6,O=C(NCCC1=CCCCC1)C1CCN(S(=O)(=O)c2cccc3cccnc23)CC1,-20.1%
7,Cl.O=C(O)c1ccc(Nc2nc(-c3cccnc3)nc3ccccc23)cc1,5.35%
8,CC1CCCN(CC(=O)NC(=O)NC2CCCCC2)C1 (stereo not drawn),4.65%
9,CC(=O)Nc1ccc(NS(=O)(=O)c2ccc(Cl)s2)cc1,-5.65%
10,CCCCCCC(=O)Nc1nc(C)c(-c2csc(Nc3cc(Cl)ccc3C)n2)s1,13.5%
11,O=S(=O)(c1cc(Cl)ccc1Cl)N1CC2CCCN2c2ccc(C(F)(F)F)cc21 (stereo not drawn),-9.61%
12,Cn1c(=O)c2c(nc(SCC(=O)NCC3CCCO3)n2C)n(C)c1=O (stereo not drawn),2.28%
13,Cc1ccc(-c2csc(NC(=O)CCNC(=O)c3ccccc3Cl)n2)cc1,1.5%
14,CC(Nc1nc(N2CCN(S(C)(=O)=O)CC2)nc2ccccc12)c1ccccc1 (stereo not drawn),-60.9%
15,COCCn1nnnc1CN1CCC(O)(c2cccc(C(F)(F)F)c2)CC1.Cl,2.65%
16,CC1CCN(C(C)C(=O)Nc2ccc(S(=O)(=O)N3CCCC3)cc2)CC1 (stereo not drawn),-6.3%
17,CCOC(=O)N1CCC(NC(=O)CSCc2nc(-c3ccc(OC)cc3)oc2C)CC1,-6.28%
18,Cc1cc(C)nc(NC(=O)c2cc(Br)ccc2Cl)n1,-3.72%
19,COc1ccccc1S(=O)(=O)Cc1ccc(C(=O)NC2CCCCCC2)o1,-13.2%
20,CC(CCc1ccccc1)NC(=O)CCCn1ncn2c(cc3occc32)c1=O (stereo not drawn),-31.2%
21,O=C(CCOc1ccccc1)Nc1ccccc1F,20.4%
22,CC1CC(C)CN(CCCNC(=O)c2ccc(CNS(=O)(=O)c3ccc(F)cc3)cc2)C1 (stereo not drawn),-32.3%

row,SMILES,"hERG current change (%, negative = inhibition) at 10uM"
1,N#CC(C#N)=C1NC2(CCCC2)Cc2ccccc21,6.42%
2,CCc1n[nH]c2c1C(=O)CC(C)(C)C2,17.4%
3,O=C(COc1ccc(F)cc1Cl)Nc1ccc(N2CCOCC2)cc1N1CCOCC1,-10.2%
4,O=C(COC(=O)CNC(=O)c1cccc([N+](=O)[O-])c1)Nc1ccccc1OC(F)F,-29.3%
5,COc1ccc(OCCCC(=O)NCc2ccco2)cc1,-7.09%
6,O=C(N[C@H]1CCCCNC1=O)c1cc(COc2ccc(F)cc2F)on1,10.2%
7,Cc1nc(SCC(=O)Nc2cc(C)on2)c2c3c(sc2n1)CCCC3,0.497%
8,COc1ccccc1N1CCN(CC(=O)NCc2ccc(Cl)cc2)CC1,-0.607%
9,O=C(O)/C(=C\c1cccc(F)c1)c1ccc(S(=O)(=O)N2CCCC2)s1,3.55%
10,O=C(NCCc1ccccc1)c1cnc2n(c1=O)CCS2,15.7%
11,CCN(Cc1cc2ccccc2[nH]c1=O)S(=O)(=O)c1ccc(OC)cc1,-0.598%
12,O=C1CCCC(O)=C1C=NCc1ccccc1,23.6%
13,O=C(COC(=O)c1ccc2c(c1)OCCO2)NC1CCCCC1,2.37%
14,CC(=O)Nc1ccc(Nc2nc(C)c([N+](=O)[O-])c(Nc3ccccc3)n2)cc1,-0.794%
15,CSCC[C@@H](C(=O)NCc1cccs1)N1Cc2ccccc2C1=O,1.01%
16,CC1(C)C(c2cccs2)=[N+]([O-])C2(CCCCC/C2=N\O)N1O (stereo not drawn),18.5%
17,O=C(CCc1nnc(COc2ccccc2)o1)NCc1ccccc1,9.88%
18,CCn1c(NCc2ccc(N(C)C)cc2)nc2ccccc21,-41.2%
19,O=C(NCc1ccncc1)/C(=C/c1cccc([N+](=O)[O-])c1)NC(=O)c1ccccc1,-71%
20,Cc1cccc(/C=N/NC(=O)c2cc(Br)ccc2OCc2ccccc2)n1,-0.685%
21,Cc1nc(CSc2nnc(Nc3cccc(C)c3C)s2)cs1,-5.24%
22,COc1ccccc1NS(=O)(=O)c1cc(C(=O)NCCC(C)C)ccc1F,-15.6%

row,SMILES,"hERG current change (%, negative = inhibition) at 10uM"
1,CNC(=O)CN1C(=O)C2C3C=CC(C3)C2C1=O (stereo not drawn),-7.5%
2,COC(=O)C(O)(c1ccc(N(C)C)cc1)C(F)(F)F (stereo not drawn),15.5%
3,NNC(=S)Nc1ccc(OC(F)(F)F)cc1,14.8%
4,Cc1ccc2nc3c(cc(C(=O)NCCc4ccccc4)c(=N)n3CC3CCCO3)c(=O)n2c1 (stereo not drawn),-76.9%
5,Cc1ccccc1C1CCCN(C(=O)c2cc(COc3c(F)cccc3F)on2)C1 (stereo not drawn),16.4%
6,C/C=C/C(=O)N1CC2(CC(c3cccc(NC(=O)CC(c4ccccc4)c4ccccc4)c3)=NO2)C[C@H]1C(N)=O (stereo partly drawn),11.3%
7,CC(C)CCNC(=O)CN(Cc1ccc2c(c1)OCO2)C(=O)Cn1nnc(-c2cccs2)n1,-29.4%
8,O=C(Nc1ccc(F)c(Cl)c1)c1cccnc1,-65.9%
9,Cn1c(=O)c2c(=O)cc(NNC(=O)C(C)(C)C)[nH]c2n(C)c1=O,0.349%
10,Cc1ccc(S(=O)(=O)Nc2c(C)nn(C)c2C)cc1,-4.07%
11,CCN1CCCC1CNS(=O)(=O)c1ccc(Br)cc1.Cl (stereo not drawn),-36.3%
12,Cc1cc2nc(C3CCN(Cc4nnnn4Cc4ccccc4)CC3)[nH]c2cc1C,-52.3%
13,CCn1cc(C(=O)O)c(=O)c2cc(F)c(N3CCN(C(=S)NC(=O)c4ccc(OC)cc4)CC3)cc21,8.45%
14,CCCC(C)C(=O)OCC(=O)Nc1c(Br)cc(C)cc1Br (stereo not drawn),14.4%
15,CCN(CC)C(=O)c1[nH]cnc1C(=O)NCCCCCNC(=O)OC(C)(C)C,13.6%
16,CCCNC(=O)COc1ncnc2sc(C)c(C)c12,-4.5%
17,CCNC(=O)NC(=O)C(C)Oc1ccc(Br)cc1Br (stereo not drawn),-3.59%
18,CCC(=O)N1CCc2cc(S(=O)(=O)NC(C(=O)N3CCN(c4ccc(F)cc4)CC3)C(C)C)ccc21 (stereo not drawn),-10.6%
19,CN(c1cccc(NC(=O)c2ccccc2N(C)S(C)(=O)=O)c1)S(C)(=O)=O,10.7%
20,Cc1ccc2nc(SC(C)C(=O)N3CCOCC3)[nH]c2c1 (stereo not drawn),4.94%
21,CCN(C(=O)c1cc2c(=O)n3cccc(C)c3nc2s1)C1CCCCC1,11.8%

# Source: PMC4336329 (PLoS ONE, 2015)
